According to the BET-seq Pho4 binding data (Le et al. 2018):
Some of the results follow. The energies were worked out here from pooled read counts, against the library average; single values are noisy.

Molecular target: T1, Pho4 (S. cerevisiae) (UniProt P07270)
T1 sequence: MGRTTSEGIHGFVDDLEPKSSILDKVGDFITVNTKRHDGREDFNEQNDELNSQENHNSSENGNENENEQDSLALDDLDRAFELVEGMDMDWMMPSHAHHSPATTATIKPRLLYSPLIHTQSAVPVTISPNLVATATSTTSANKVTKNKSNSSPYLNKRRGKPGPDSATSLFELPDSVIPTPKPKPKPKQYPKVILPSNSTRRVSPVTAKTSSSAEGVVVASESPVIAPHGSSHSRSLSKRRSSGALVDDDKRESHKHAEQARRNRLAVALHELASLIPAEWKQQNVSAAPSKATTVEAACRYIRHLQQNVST
Assay: relative binding free energy (BET-seq); higher = weaker binding
Conditions: reference: library average

Sequence | relative binding free energy [kcal/mol]
AGGAACACGTGTGTCG | 0.15
GAGGCCACGTGTGTAG | -0.02
CATTGCACGTGTATTA | 0.12
TTGTTCACGTGGTGTG | 0.25
TAAGTCACGTGGTAGT | 0.02
TGATACACGTGTGGAG | 0.05
CTCTGCACGTGTTTGT | -0.08
AGTCGCACGTGCTGTT | -0.13
TAGTACACGTGGGGCG | 0.05
TGTGTCACGTGTAAAG | 0.1
GGCGGCACGTGATTTA | 0.05
TTATTCACGTGAAGCT | 0.32
GGGAACACGTGTGATA | 0.25
AGGGGCACGTGTTGGT | -0.01
AATAACACGTGAGGTG | 0.27
AACATCACGTGGGGGT | -0.14
GGTAACACGTGAGGTT | 0.27
ATTTGCACGTGGTCTG | -0.07
TATATCACGTGATAAT | 0.27
CGTAGCACGTGAAGGG | 0.18
ATGAGCACGTGGTGTG | -0.17
TATATCACGTGTCAGG | 0.02
TGTCTCACGTGGTGCA | 0.16
GTTGTCACGTGAGACG | 0.19
GTTCTCACGTGGTGAT | 0.23
ACACTCACGTGGTTGG | 0.23

Sequence | relative binding free energy [kcal/mol]
GTGGCCACGTGGGCTT | -0.17
ATCGGCACGTGAGAAT | 0.38
TTTTTCACGTGTAACA | 0.34
TGCATCACGTGTATTG | 0.17
TTTTTCACGTGGAGCG | 0.28
GGCAGCACGTGGGGCG | -0.3
TGTCGCACGTGAGGGT | 0.09
AATGTCACGTGTCGTA | 0.17
TCGTGCACGTGTGAGA | 0.01
GGTGGCACGTGTAAGA | 0.06
AAGCACACGTGGGTGT | -0.07
TTAGGCACGTGATAGA | -0.13
GTTGGCACGTGGTGAG | -0.1
TGCTTCACGTGGGCTA | 0.18
GAGTACACGTGGGGAT | 0.01
TGTAGCACGTGAATAA | 0.11
AGTATCACGTGTGCAT | 0.16
CTGTTCACGTGTTTGG | 0.25
CGGGACACGTGGAGGG | 0.01
ATTGACACGTGGGTAA | -0.07
ACGTACACGTGTTAGT | 0.05
TCCTGCACGTGTGTGG | -0.01
GTATGCACGTGAGTAC | 0.27
GTGCGCACGTGGTACG | -0.02
CGAGGCACGTGATGCT | 0.01
ATCTACACGTGTATGG | 0.09

Sequence | relative binding free energy [kcal/mol]
TTTATCACGTGGGAAA | 0.16
GCGATCACGTGGTTTT | 0.11
AGCAACACGTGTAGTG | 0.11
GAAGGCACGTGGGGAG | -0.13
TTCGGCACGTGAATAT | 0.05
TAATGCACGTGTTAAG | -0.07
TGCGTCACGTGTGTAG | 0.07
TTGGGCACGTGACGCT | -0.1
TCGGTCACGTGAATTG | 0.29
ACGGGCACGTGGTGAT | -0.22
GATTGCACGTGTGCGT | 0.18
AGCAACACGTGGGGGT | -0.19
CGGTTCACGTGGAAAG | 0.41
GCTTGCACGTGTTTTG | -0.08
GTTTTCACGTGAATTC | 0.59
ATGTGCACGTGAAGGG | 0.22
ATTTACACGTGTGTTT | 0.05
TCAGGCACGTGGGTCG | -0.31
GGGTACACGTGAGGTG | 0.34
TGTCTCACGTGCTAGT | 0.25
AGTATCACGTGTATAG | 0.2
CGTCGCACGTGTTGGT | -0.13
ATATACACGTGTAGTG | -0.04
CAAGGCACGTGTTGGT | -0.22
TGTGACACGTGATCTA | 0.11
TGGCTCACGTGGATTT | 0.2

Sequence | relative binding free energy [kcal/mol]
TATGGCACGTGCGGTG | -0.3
TGAAGCACGTGTGTAT | -0.14
AGATACACGTGCGTGT | -0.07
GTAATCACGTGGTTAT | 0.06
GTGTTCACGTGTGGTT | 0.36
TGTCCCACGTGAGGGT | 0.11
TGAGTCACGTGATTTG | 0.23
TAGGCCACGTGAGATG | 0.15
CAGTTCACGTGCGTGG | 0.2
GTTTTCACGTGGGAGC | 0.16
ATTCTCACGTGATTTA | 0.3
AGGTACACGTGTAGCG | 0.08
GTGGTCACGTGGTAGT | 0.19
GGATCCACGTGTGAGG | 0.22
TCTAACACGTGGGGGA | -0.15
TGAGACACGTGGTGTA | -0.2
GTCAGCACGTGTGGAT | 0.13
TGGGGCACGTGGGCTC | -0.24
CGGGACACGTGATGGG | 0.1
AGGGGCACGTGTTGTC | -0.1
GTCAACACGTGGTATG | 0.02
TGGTGCACGTGAGTAC | 0.25
TCGGGCACGTGTGGAC | 0.1
TGTAACACGTGTCGAG | 0.12
GTAAACACGTGGTAGG | -0.14
GTGGGCACGTGAGCAG | 0.18

Sequence | relative binding free energy [kcal/mol]
ATAGTCACGTGGTGAC | 0.1
TATCACACGTGAGTTT | 0.33
CTGTCCACGTGGGTTG | -0.14
GGGCACACGTGTGTGT | 0.12
TAGCGCACGTGTGTCG | -0.15
GAGGGCACGTGTGGTA | 0.04
TGGAGCACGTGTTTCT | -0.12
TGTGGCACGTGGCCAG | -0.21
CGATGCACGTGTGCTG | -0.03
AAGGGCACGTGGAGTA | -0.16
TTGGGCACGTGAACTT | 0.08
TGTGCCACGTGCGTCG | -0.12
ATCTGCACGTGAGGTT | 0.22
GACGGCACGTGAGATG | 0.28
TTAGGCACGTGAGGGC | 0.17
TTGAGCACGTGTGCAT | -0.16
AGAGTCACGTGGAGTT | 0.15
GATGACACGTGGGCGG | -0.08
AGGCTCACGTGTGTTA | 0.19
TGCGGCACGTGGGTTA | -0.14
AGTCTCACGTGGTGAT | 0.17
TGTAGCACGTGTTGAG | -0.1
TTGACCACGTGTATGG | -0.12
GGTTACACGTGAGGAA | 0.41
TGGTACACGTGGGCGC | -0.08
TAAATCACGTGGATAG | 0.26

Sequence | relative binding free energy [kcal/mol]
GGGGCCACGTGGGAGC | -0.06
TTGGTCACGTGTTATC | 0.16
GATTTCACGTGTCTGG | 0.3
TGATACACGTGTTGCT | -0.13
TTCTTCACGTGGTAGG | 0.15
TTAATCACGTGTGGCT | 0.05
TAAATCACGTGTTATT | 0.15
CTTGTCACGTGCGTGG | -0.14
TTTGGCACGTGTGTTG | 0
GAGTACACGTGGGGTT | -0.09
ATTATCACGTGGCGGT | 0.02
AATGTCACGTGTCGGG | 0.23
TTCGTCACGTGTGATT | 0.14
GTTGGCACGTGGTTAG | -0.02
AATATCACGTGCGGGG | 0.28
GAGGGCACGTGGCTGT | -0.1
GGTTGCACGTGAGGCA | 0.13
TTGTGCACGTGAGCTA | 0.19
GCGGGCACGTGGTTGC | -0.14
GTGCGCACGTGTTCGT | -0.06
AGTTACACGTGTTTGG | 0.11
AAGGACACGTGCTTGT | 0
CTCTGCACGTGTATGG | 0.08
TGTGGCACGTGGGACA | -0.18
GTTGGCACGTGGTAAG | -0.1
TTGGGCACGTGGTAGG | -0.07

Sequence | relative binding free energy [kcal/mol]
CATGGCACGTGTAGAG | 0.05
GTCGGCACGTGGGTGA | -0.18
AAATGCACGTGTTTAA | 0.05
TGGCGCACGTGGGGTA | -0.14
TATGCCACGTGGTGTA | -0.16
ATCGTCACGTGAGTTA | 0.26
CTGGGCACGTGGGAGG | -0.17
TTCGTCACGTGGGTGA | 0.1
CGTATCACGTGTTCGT | 0.1
CGTTTCACGTGTATGG | 0.31
GTCTTCACGTGTGGGA | 0.27
GGTCTCACGTGTTAGG | 0.32
TTGCGCACGTGTCTTT | -0.04
AATGACACGTGTAGAG | 0.25
AGGCTCACGTGGTATA | 0.22
CTGAACACGTGGTTTG | -0.04
CATTGCACGTGCAGGG | -0.14
ACTGCCACGTGTGGGG | -0.17
GTCGGCACGTGTGTAA | -0.11
GGTTTCACGTGGGTCA | 0.14
GTTTGCACGTGACTTT | 0.12
ACGTGCACGTGAAGGT | 0.05
AGGTGCACGTGTTTTC | -0.14
TGGATCACGTGCTGGG | 0.17
TGTTTCACGTGAATCA | 0.31
GGGATCACGTGTGCTG | 0.28

Sequence | relative binding free energy [kcal/mol]
TTGAGCACGTGATGAA | 0.07
TTATCCACGTGGGGGC | -0.08
TTTGACACGTGAACTG | 0.24
TATATCACGTGAATGT | 0.23
ACAAGCACGTGGGCGG | -0.19
TATGACACGTGCGGGA | -0.03
ATGGGCACGTGAAAGA | 0.27
CCGGTCACGTGGAGTT | 0.08
AGGTGCACGTGTTCTT | -0.06
GAAGGCACGTGGGCGG | -0.19
TTCGTCACGTGAGTTA | 0.24
ATGAACACGTGGTTTT | 0.02
GGTAACACGTGGAGGG | 0.06
GGCGCCACGTGGGTGC | -0.18
GATGGCACGTGATGGC | 0.13
GTGGGCACGTGGGCTG | -0.09
GAGGGCACGTGTTTAT | 0.15
GTCGTCACGTGTGAGG | 0.15
GGAGTCACGTGATGCT | 0.29
TTTGGCACGTGTGGGG | 0.02
CGTAACACGTGTGGCT | 0.14
GTAGTCACGTGTCGTT | 0.16
AGGAACACGTGTTAGG | 0.15
TTAGCCACGTGGGGTA | -0.17
ATAGACACGTGGGGGC | -0.02
GTTGGCACGTGTGATC | 0.21

Sequence | relative binding free energy [kcal/mol]
GTAGGCACGTGGGATA | -0.32
TTCAGCACGTGAGTAG | 0.25
ATATGCACGTGGACGG | -0.05
GACTGCACGTGTTGTT | 0.17
TTCTACACGTGAGGTT | 0.34
TTTACCACGTGCTGGG | -0.11
TAGTGCACGTGTTTGC | 0.01
CGTGTCACGTGGTGTG | -0.11
TCATTCACGTGGGGAT | 0.08
TGATGCACGTGGATCA | 0.03
TGTGGCACGTGGTCAG | -0.16
ATCAGCACGTGGTGGA | -0.26
TGAGTCACGTGTTGAC | 0.1
CGCAGCACGTGGGGTG | -0.25
GGTGTCACGTGTGGGT | 0.18
GATGTCACGTGGTTTT | 0.2
TTGTACACGTGTACTT | 0.11
TATGTCACGTGCTTCG | 0
GTTATCACGTGTGCGA | 0.26
CGGTTCACGTGAATTT | 0.35
CATGGCACGTGTTTGG | -0.06
TAGTTCACGTGAGAGG | 0.35
